Reference: the supplement of paper PMC8285479
Counter-ions that a name gives are not always drawn. ± gives the standard deviation of the averaged measurements. Over roughly 1,900 compounds, “normalised cell viability (NPI; 0 = phenylarsine oxide control, 1 = DMSO control)” has its median near 1; the lowest 2% begin near 0.039. Some of the results follow.

System: NCI-H1944
Experiment: normalised cell viability (NPI; 0 = phenylarsine oxide control, 1 = DMSO control) (fraction of DMSO control); NCI-H1944 is a non-small cell lung cancer line; higher = more viable cells (less compound toxicity)
Settings: 6 days
[1] = glucocorticoid arm: hydrocortisone 2.75 uM co-treatment, compound 1 µM
[2] = glucocorticoid arm: hydrocortisone 2.75 uM co-treatment, compound 5 µM
[3] = glucocorticoid arm: hydrocortisone 2.75 uM pre-treated 2 days and continued, compound 1 µM
[4] = glucocorticoid arm: hydrocortisone 2.75 uM pre-treated 2 days and continued, compound 5 µM
[5] = glucocorticoid arm: vehicle, compound 1 µM
[6] = glucocorticoid arm: vehicle, compound 5 µM
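Note: CTB read-out in 384-well plates, mean of triplicate wells, normalised per plate against 1 µM phenylarsine oxide and 0.1% DMSO, compounds added 24 h after seeding.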

Clc1cccc(N2CCNCC2)c1 [1-(3-Chlorophenyl)piperazine dihydrochloride]
normalised cell viability [1]: 1.005 ± 0.0092
normalised cell viability [2]: 1.01 ± 0.021
normalised cell viability [3]: 1.007 ± 0.0058
normalised cell viability [4]: 1.02 ± 0.014
normalised cell viability [5]: 0.992 ± 0.0044
normalised cell viability [6]: 0.9913 ± 0.0076

C#C[C@]1(O)CC[C@H]2[C@@H]3CCC4=Cc5nc6nc7ccccc7n6cc5C[C@]4(C)[C@H]3CC[C@@]21C
normalised cell viability [1]: 1.02 ± 0.015
normalised cell viability [2]: 1.06 ± 0.021
normalised cell viability [3]: 1.05 ± 0.038
normalised cell viability [4]: 1.06 ± 0.023
normalised cell viability [5]: 1.01 ± 0.01
normalised cell viability [6]: 1.023 ± 0.0058

CCNC(=O)C[C@@H]1N=C(c2ccc(Cl)cc2)c2cc(OC)ccc2-n2c(C)nnc21
normalised cell viability [1]: 0.957 ± 0.03
normalised cell viability [2]: 0.993 ± 0.074
normalised cell viability [3]: 0.906 ± 0.074
normalised cell viability [4]: 0.9773 ± 0.0038
normalised cell viability [5]: 1.01 ± 0.024
normalised cell viability [6]: 0.945 ± 0.012

C[N+](C)(C)CCCCCCCCCC[N+](C)(C)C [Decamethonium Bromide]
normalised cell viability [1]: 1.023 ± 0.0058
normalised cell viability [2]: 1.04 ± 0.02
normalised cell viability [3]: 1.03 ± 0.017
normalised cell viability [4]: 1.02 ± 0.026
normalised cell viability [5]: 1.01 ± 0.01
normalised cell viability [6]: 1.013 ± 0.0058

C[N+](C)(C)CCCCCCCCCC[N+](C)(C)C [Decamethonium dibromide]
normalised cell viability [1]: 1.004 ± 0.0098
normalised cell viability [2]: 0.976 ± 0.014
normalised cell viability [3]: 0.99967 ± 0.00058
normalised cell viability [4]: 0.9817 ± 0.0081
normalised cell viability [5]: 0.98967 ± 0.00058
normalised cell viability [6]: 0.992 ± 0.0017

c1ccc2nc(N3CCNCC3)ccc2c1 [Quipazine dimaleate]
normalised cell viability [1]: 0.996 ± 0.004
normalised cell viability [2]: 0.996 ± 0.03
normalised cell viability [3]: 0.882 ± 0.21
normalised cell viability [4]: 1.03 ± 0.02
normalised cell viability [5]: 0.9913 ± 0.0035
normalised cell viability [6]: 0.997 ± 0.0027

O=C1NCN(c2ccccc2)C12CCN(CC1COc3ccccc3O1)CC2 (stereo not given) [Spiroxatrine]
normalised cell viability [1]: 0.98 ± 0.0046
normalised cell viability [2]: 0.98 ± 0.012
normalised cell viability [3]: 1 ± 0.018
normalised cell viability [4]: 0.9933 ± 0.007
normalised cell viability [5]: 0.9847 ± 0.0078
normalised cell viability [6]: 0.9713 ± 0.0067

CN1C[C@H](C(=O)N[C@]2(C)O[C@@]3(O)[C@@H]4CCCN4C(=O)[C@H](Cc4ccccc4)N3C2=O)C[C@@H]2c3cccc4[nH]cc(c34)C[C@H]21 [Dihydroergotamine methanesulfonate]
normalised cell viability [1]: 0.991 ± 0.0072
normalised cell viability [2]: 0.984 ± 0.012
normalised cell viability [3]: 0.9897 ± 0.0042
normalised cell viability [4]: 0.996 ± 0.025
normalised cell viability [5]: 0.995 ± 0.002
normalised cell viability [6]: 0.997 ± 0.002

CC1C2Cc3ccc(O)cc3C1(C)CCN2CC1CC1 (single isomer, unassigned; (+)) [(+)-Cyclazocine]
normalised cell viability [1]: 1.001 ± 0.0085
normalised cell viability [2]: 1.003 ± 0.0058
normalised cell viability [3]: 1 ± 0.01
normalised cell viability [4]: 0.978 ± 0.013
normalised cell viability [5]: 1.01
normalised cell viability [6]: 0.9993 ± 0.0095

C[N+]1(C)[C@@H]2CC[C@H]1C[C@@H](OC(=O)C(CO)c1ccccc1)C2 (stereo not given in full) [Atropine methyl nitrate]
normalised cell viability [1]: 0.976 ± 0.0066
normalised cell viability [2]: 1.001 ± 0.0078
normalised cell viability [3]: 0.9843 ± 0.0093
normalised cell viability [4]: 1.01 ± 0.021
normalised cell viability [5]: 0.9787 ± 0.0091
normalised cell viability [6]: 0.989 ± 0.0046

C[N+]1(C)[C@@H]2CC[C@H]1C[C@@H](OC(=O)C(CO)c1ccccc1)C2 (stereo not given in full) [Atropine methyl bromide]
normalised cell viability [1]: 0.988 ± 0.0053
normalised cell viability [2]: 0.989 ± 0.011
normalised cell viability [3]: 1 ± 0.0084
normalised cell viability [4]: 1 ± 0.015
normalised cell viability [5]: 0.974 ± 0.0087
normalised cell viability [6]: 0.983 ± 0.017

CC(CCc1ccccc1)NC(C)C(O)c1ccc(O)cc1 (stereo not given) [Nylidrin hydrochloride]
normalised cell viability [1]: 0.987 ± 0.011
normalised cell viability [2]: 0.955 ± 0.0096
normalised cell viability [3]: 1.007 ± 0.0058
normalised cell viability [4]: 1.03 ± 0.08
normalised cell viability [5]: 1.003 ± 0.0058
normalised cell viability [6]: 1.01 ± 0.017

Cc1c(C(=O)c2cccc3ccccc23)c2cccc3c2n1[C@H](CN1CCOCC1)CO3 [( R)-(+)-WIN 55,212-2 mesylate]
normalised cell viability [1]: 1.004 ± 0.01
normalised cell viability [2]: 0.0209 ± 0.0039
normalised cell viability [3]: 1.01 ± 0.029
normalised cell viability [4]: 0.016 ± 0.002
normalised cell viability [5]: 1.013 ± 0.0058
normalised cell viability [6]: 0.00693 ± 0.00096

O=C(O)CNC(=O)c1c(O)c2ccccc2n(Cc2ccccc2)c1=O
normalised cell viability [1]: 0.9887 ± 0.004
normalised cell viability [2]: 1.03 ± 0.015
normalised cell viability [3]: 1 ± 0.023
normalised cell viability [4]: 1.02 ± 0.015
normalised cell viability [5]: 0.995 ± 0.0027
normalised cell viability [6]: 1.01

CCCN1C[C@H](CSC)C[C@@H]2c3cccc4[nH]cc(c34)C[C@H]21 [Pergolide mesylate]
normalised cell viability [1]: 1.03 ± 0.011
normalised cell viability [2]: 0.993 ± 0.029
normalised cell viability [3]: 1.027 ± 0.0058
normalised cell viability [4]: 1.02
normalised cell viability [5]: 1.007 ± 0.0058
normalised cell viability [6]: 0.984 ± 0.012

CCCN1C[C@H](CSC)C[C@@H]2c3cccc4[nH]cc(c34)C[C@H]21 [Pergolide methanesulfonate]
normalised cell viability [1]: 0.971 ± 0.002
normalised cell viability [2]: 0.988 ± 0.011
normalised cell viability [3]: 0.999 ± 0.036
normalised cell viability [4]: 1.02 ± 0.017
normalised cell viability [5]: 0.973 ± 0.0027
normalised cell viability [6]: 0.9703 ± 0.0057

CCCCc1ccc(C(=O)O)nc1 [Fusaric acid]
normalised cell viability [1]: 1.01 ± 0.012
normalised cell viability [2]: 0.9917 ± 0.0051
normalised cell viability [3]: 1.002 ± 0.0072
normalised cell viability [4]: 0.985 ± 0.032
normalised cell viability [5]: 1.01
normalised cell viability [6]: 0.99967 ± 0.00058

OC1CCCCC1N1CCC(c2ccccc2)CC1 (racemic) [(±)-Vesamicol hydrochloride]
normalised cell viability [1]: 0.9747 ± 0.0049
normalised cell viability [2]: 0.91 ± 0.021
normalised cell viability [3]: 0.875 ± 0.21
normalised cell viability [4]: 0.978 ± 0.022
normalised cell viability [5]: 0.9897 ± 0.0025
normalised cell viability [6]: 0.9897 ± 0.0076

N.N.[Cl][Pt][Cl] [Cisplatin]
normalised cell viability [3]: 1.01

Oc1ccc2c3c1O[C@H]1c4[nH]c5c(c4C[C@@]4(O)[C@@H](C2)N(CC2CC2)CC[C@]314)C[C@@]1(O)[C@H]2Cc3ccc(O)c4c3[C@@]1(CCN2CC1CC1)[C@H]5O4 [nor-Binaltorphimine dihydrochloride]
normalised cell viability [1]: 1 ± 0.011
normalised cell viability [2]: 1.01 ± 0.01
normalised cell viability [3]: 1.01 ± 0.01
normalised cell viability [4]: 1.04 ± 0.08
normalised cell viability [5]: 0.9997 ± 0.0093
normalised cell viability [6]: 1 ± 0.018

C[N+](C)(C)CC#CCOC(=O)Nc1cccc(Cl)c1
normalised cell viability [1]: 0.991 ± 0.021
normalised cell viability [2]: 0.998 ± 0.013
normalised cell viability [3]: 0.872 ± 0.21
normalised cell viability [4]: 0.995 ± 0.022
normalised cell viability [5]: 1 ± 0.017
normalised cell viability [6]: 1.001 ± 0.0081

CN1C[C@@H](NS(=O)(=O)N(C)C)C[C@@H]2c3cccc4c3c(cn4C)C[C@H]21 [Mesulergine hydrochloride]
normalised cell viability [1]: 0.997 ± 0.0027
normalised cell viability [2]: 0.968 ± 0.02
normalised cell viability [3]: 1 ± 0.015
normalised cell viability [4]: 1.04 ± 0.076
normalised cell viability [5]: 0.9727 ± 0.0068
normalised cell viability [6]: 0.972 ± 0.0056

CC(=O)Oc1ccc(/C=C/c2cc(OC(C)=O)cc(OC(C)=O)c2)cc1 [Triacetylresveratrol]
normalised cell viability [1]: 1.002 ± 0.0094
normalised cell viability [2]: 0.999 ± 0.019
normalised cell viability [3]: 1 ± 0.011
normalised cell viability [4]: 1.01 ± 0.017
normalised cell viability [5]: 0.992 ± 0.014
normalised cell viability [6]: 0.998 ± 0.017

Cc1ncc(CNC(=O)N(CCCl)N=O)c(N)n1 [Nimustine hydrochloride]
normalised cell viability [1]: 1.017 ± 0.0058
normalised cell viability [2]: 1.02 ± 0.018
normalised cell viability [3]: 1.013 ± 0.0058
normalised cell viability [4]: 0.889 ± 0.24
normalised cell viability [5]: 0.9977 ± 0.0021
normalised cell viability [6]: 1.01 ± 0.012

COc1ccc2[nH]cc(CCN)c2c1 [O-Methylserotonin hydrochloride]
normalised cell viability [1]: 1.013 ± 0.0058
normalised cell viability [2]: 1.03
normalised cell viability [3]: 1.01 ± 0.014
normalised cell viability [4]: 1.04 ± 0.055
normalised cell viability [5]: 0.9987 ± 0.0015
normalised cell viability [6]: 1.01 ± 0.018
